Results filed as inconclusive are left out. A number of entries come with more than one value. Only these are listed. There may be further records. Values given together are repeats in other runs, samples, wells, individuals or studies.
System: BDF1 mice, colon carcinoma 38 sc, T/C %
Assay: NCI In Vivo Anticancer Drug Screen. Data for tumor model Colon Carcinoma 38 (subcutaneous) in B6D2F1 (BDF1) mice
Settings: endpoint: median tumor weight (est.), schedule: Q07DX002 (ip), higher = larger tumour
Protocol: The antitumor activity of compounds was measured in mice bearing transplantable tumors. Survival or tumor size were measured and the results are expressed as the measurement made in the treated group (T) divided by the measurement made in the vehicle treated control group (C). The tumor model used in this assay is Colon Carcinoma 38 (subcutaneous) in B6D2F1 (BDF1) mice

[1] = dose: 12.5 mg/kg/injection, vehicle: saline with Tween-80
[2] = dose: 50.0 mg/kg/injection, vehicle: saline with Tween-80
[3] = dose: 100.0 mg/kg/injection, vehicle: saline with Tween-80
[4] = dose: 5.0 mg/kg/injection, vehicle: saline with Tween-80
[5] = dose: 10.0 mg/kg/injection, vehicle: saline with Tween-80
[6] = dose: 20.0 mg/kg/injection, vehicle: saline with Tween-80
[7] = dose: 25.0 mg/kg/injection, vehicle: saline
[8] = dose: 100.0 mg/kg/injection, vehicle: saline
[9] = dose: 200.0 mg/kg/injection, vehicle: saline
[10] = dose: 50.0 mg/kg/injection, vehicle: Klucel (hydroxypropylcellulose) (HPC)
[11] = dose: 400.0 mg/kg/injection, vehicle: Klucel (hydroxypropylcellulose) (HPC)
[12] = dose: 50.0 mg/kg/injection, vehicle: saline
[13] = dose: 400.0 mg/kg/injection, vehicle: saline
[14] = dose: 800.0 mg/kg/injection, vehicle: saline

## Cn1c2nc(=O)n(-c3ccccc3)c(=O)c-2nc2c1CCCC2
[1]
  T/C: 79 % of control and 113 % of control
[2]
  T/C: 93 % of control and 123 % of control

## NS(=O)(=O)OCCCCCCCOS(N)(=O)=O
[2]
  T/C: 52 % of control and 87 % of control
[3]
  T/C: 27 % of control and 62 % of control

## Nc1ccc(Cn2ccc3c4c(N)nc(N)nc4ccc32)cc1
[4]
  T/C: 60 % of control and 93 % of control
[5]
  T/C: 51 % of control and 96 % of control
[6]
  T/C: 60 % of control and 93 % of control

## N=C(N)SCc1c2ccccc2c(CSC(=N)N)c2ccccc12
[7]
  T/C: 63 % of control and 89 % of control
[8]
  T/C: 68 % of control and 114 % of control
[9]
  T/C: 19 % of control and 53 % of control

## Cc1c(N)nc([C@H](CC(N)=O)NC[C@H](N)C(N)=O)nc1C(=O)N[C@H](C(=O)N[C@H](C)[C@@H](O)[C@H](C)C(=O)N[C@H](C(=O)NCCc1nc(-c2nc(C(=O)NCCC[S+](C)C)cs2)cs1)[C@@H](C)O)C(OC1OC(CO)C(O)C(O)C1OC1OC(CO)C(O)C(OC(N)=O)C1O)c1cnc[nH]1 (stereo partly specified)
dose: 4.0 mg/kg/injection, vehicle: saline
  T/C: 51 % of control and 110 % of control
dose: 8.0 mg/kg/injection, vehicle: saline
  T/C: 29 % of control, 64 % of control, 102 % of control

## CN=C(N)N/N=C(\C)c1ccc2c(c1)Cc1ccccc1-2
dose: 200.0 mg/kg/injection, vehicle: saline with Tween-80
  T/C: 81 % of control and 119 % of control

## CC12CCC3C(CCC4CC(OC(=O)Cc5ccc(N(CCCl)CCCl)cc5)CCC43C)C1CCC(=O)N2 (stereo unspecified)
dose: 12.0 mg/kg/injection, vehicle: saline with Tween-80
  T/C: 39 % of control and 79 % of control

## CCCCCCCC(=O)[O][Hg][CH2]C1COC([CH2][Hg][O]C(=O)CCCCCCC)CO1 (stereo unspecified)
[1]
  T/C: 75 % of control and 121 % of control
[2]
  T/C: 73 % of control and 110 % of control

## CCOC(=O)c1ccc(NC(=O)Nc2nncs2)cc1
dose: 100.0 mg/kg/injection, vehicle: distilled water + Tween-80
  T/C: 82 % of control and 120 % of control
dose: 200.0 mg/kg/injection, vehicle: distilled water + Tween-80
  T/C: 81 % of control and 155 % of control

## O=c1ssc(=Nc2ccccc2)n1-c1ccccc1
dose: 25.0 mg/kg/injection, vehicle: Klucel (hydroxypropylcellulose) (HPC)
  T/C: 54 % of control and 150 % of control
[10]
  T/C: 62 % of control and 124 % of control
dose: 200.0 mg/kg/injection, vehicle: Klucel (hydroxypropylcellulose) (HPC)
  T/C: 108 % of control and 157 % of control
[11]
  T/C: 78 % of control and 113 % of control

## C/C(=N\NC(N)=O)c1cccc(/C(C)=N/NC(N)=O)n1
[3]
  T/C: 46 % of control and 96 % of control

## Nc1nc([Se])c2ncn(C3OC(CO)C(O)C3O)c2n1 (stereo unspecified)
dose: 32.0 mg/kg/injection, vehicle: suspension in saline
  T/C: 72 % of control and 122 % of control

## COc1cc2c3c(cccc3c1)C(=O)N(CCN(C)C)C2=O
[6]
  T/C: 78 % of control and 116 % of control

## CCOC(=O)CNC(=O)Sc1ccc(C(C)(C)C)cc1
[10]
  T/C: 88 % of control and 121 % of control

## CC(=O)Oc1c(C)[nH]ccc1=O
[7]
  T/C: 55 % of control and 116 % of control
[12]
  T/C: 56 % of control, 69 % of control, 88 % of control
[8]
  T/C: 78 % of control and 164 % of control
[13]
  T/C: 85 % of control and 170 % of control
[14]
  T/C: 55 % of control and 169 % of control

## Nc1n[nH]c(N)n1
[9]
  T/C: 85 % of control, 97 % of control, 155 % of control
[14]
  T/C: 62 % of control, 76 % of control, 92 % of control

## CCC1(O)CC2CN(CCc3c([nH]c4ccccc34)C(C(=O)OC)(c3cc4c(cc3OC)N(C)C3C(O)(C(N)=O)C(O)C5(CC)C=CCN6CCC43C65)C2)C1 (stereo unspecified) (tested in a mixture with another compound)
dose: 0.25 mg/kg/injection, vehicle: water
  T/C: 91 % of control and 121 % of control
dose: 1.0 mg/kg/injection, vehicle: water
  T/C: 52 % of control and 100 % of control

## c1ccc2sc(SSN3CC4CCC(CC4)C3)nc2c1
[2]
  T/C: 74 % of control and 117 % of control
dose: 400.0 mg/kg/injection, vehicle: saline with Tween-80
  T/C: 78 % of control and 121 % of control

## C=CCOCC1CO1 (stereo unspecified)
[7]
  T/C: 68 % of control and 110 % of control
[12]
  T/C: 69 % of control and 108 % of control

## CC1(C)CC23C4COC(=O)C2CCC1C3CC4=O (stereo unspecified)
dose: 100.0 mg/kg/injection, vehicle: DMSO
  T/C: 81 % of control and 118 % of control

## CNC(=O)OCc1c(COC(=O)NC)c(-c2ccccc2)n(C)c1-c1ccccc1
dose: 6.25 mg/kg/injection, vehicle: distilled water + Tween-80
  T/C: 59 % of control and 195 % of control
dose: 12.5 mg/kg/injection, vehicle: distilled water + Tween-80
  T/C: 87 % of control, 93 % of control, 118 % of control
dose: 25.0 mg/kg/injection, vehicle: distilled water + Tween-80
  T/C: 45 % of control, 64 % of control, 87 % of control
dose: 50.0 mg/kg/injection, vehicle: distilled water + Tween-80
  T/C: 40 % of control, 104 % of control, 122 % of control

## O=C(O)CCCc1ccc(N(CCCl)CCCl)cc1
dose: 7.5 mg/kg/injection, vehicle: Klucel (hydroxypropylcellulose) (HPC)
  T/C: 74 % of control, 96 % of control, 117 % of control
dose: 30.0 mg/kg/injection, vehicle: Klucel (hydroxypropylcellulose) (HPC)
  T/C: 41 % of control, 59 % of control, 78 % of control

## NC1CCCCC1N.O=C1C=CC(=C(c2ccc(O)cc2)c2ccccc2S(=O)(=O)[O-])C=C1.O=[N+]([O-])[O-].[Pt+4]
dose: 3.12 mg/kg/injection, vehicle: saline
  T/C: 5 % of control, 68 % of control, 69 % of control
dose: 6.25 mg/kg/injection, vehicle: saline
  T/C: 8 % of control, 13 % of control, 54 % of control
dose: 12.5 mg/kg/injection, vehicle: saline
  T/C: 2 % of control, 17 % of control, 43 % of control

## CC(=O)[O][Pb]([O]C(C)=O)([c]1ccccc1)[c]1ccccc1
[10]
  T/C: 24 % of control and 112 % of control
dose: 100.0 mg/kg/injection, vehicle: Klucel (hydroxypropylcellulose) (HPC)
  T/C: 44 % of control and 159 % of control
[11]
  T/C: 51 % of control and 168 % of control

## CCC1OCC(C(Cl)CCl)O1 (stereo unspecified)
[10]
  T/C: 104 % of control and 151 % of control

## O=C(O)CP(=O)(O)O
[8]
  T/C: 60 % of control and 92 % of control
[13]
  T/C: 115 % of control and 151 % of control

## OCCOCC(F)(F)F
[1]
  T/C: 63 % of control and 216 % of control
[2]
  T/C: 72 % of control and 100 % of control
[3]
  T/C: 78 % of control and 105 % of control

## Cc1c2cc[n+](C)cc2c(C)c2c1[nH]c1ccc(O)cc12
dose: 2.0 mg/kg/injection, vehicle: water
  T/C: 78 % of control and 116 % of control

## CSc1cc(=O)n2c3ccccc3c3ccnc1c32
[4]
  T/C: 65 % of control and 98 % of control
[5]
  T/C: 90 % of control and 158 % of control
[6]
  T/C: 37 % of control and 91 % of control
dose: 40.0 mg/kg/injection, vehicle: saline with Tween-80
  T/C: 47 % of control and 162 % of control

## C/C=C(\C)c1cc(=O)c2c(C)cc3c(c2o1)C(=O)c1c(O)c(C2CC(C)(N(C)C)C(O)C(C)O2)cc(C2CC(N(C)C)C(O)C(C)O2)c1C3=O (stereo unspecified)
dose: 125.0 micrograms/kg/injection, vehicle: saline
  T/C: 84 % of control and 117 % of control

## C=CC(=O)NCNC(=O)C=C
[7]
  T/C: 48 % of control and 98 % of control
[12]
  T/C: 84 % of control and 117 % of control

Reference: PubChem BioAssay AID212 (DTP/NCI, 2004)
